Measurements published in patent publication US20200392203A1 (YEDA RESEARCH AND DEVELOPMENT, published 2020).

How the values were obtained:
Test in all cases: cell-based or functional assay
[1] = target: T1, native spike complex (glycoprotein complex, GPC) of Guanarito virus (GTOV) (Guanarito virus (GTOV), UniProt Q8AYW1 2-479)
T1 sequence: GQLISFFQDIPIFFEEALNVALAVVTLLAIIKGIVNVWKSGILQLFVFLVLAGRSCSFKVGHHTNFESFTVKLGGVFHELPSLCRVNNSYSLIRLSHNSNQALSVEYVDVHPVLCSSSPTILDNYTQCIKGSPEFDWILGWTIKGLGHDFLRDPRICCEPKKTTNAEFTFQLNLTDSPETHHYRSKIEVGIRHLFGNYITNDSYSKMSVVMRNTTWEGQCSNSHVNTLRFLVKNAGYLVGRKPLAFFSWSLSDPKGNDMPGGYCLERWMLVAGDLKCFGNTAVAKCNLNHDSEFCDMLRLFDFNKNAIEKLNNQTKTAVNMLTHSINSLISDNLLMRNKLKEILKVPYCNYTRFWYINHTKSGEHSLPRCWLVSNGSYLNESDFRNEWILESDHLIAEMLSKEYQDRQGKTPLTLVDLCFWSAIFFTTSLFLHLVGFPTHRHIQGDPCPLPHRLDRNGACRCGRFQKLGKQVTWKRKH

[2] = target: T2, native spike complex (glycoprotein complex, GPC) of Machupo virus (MACV) (Machupo virus (MACV), UniProt Q6IUF7 2-496)
T2 sequence: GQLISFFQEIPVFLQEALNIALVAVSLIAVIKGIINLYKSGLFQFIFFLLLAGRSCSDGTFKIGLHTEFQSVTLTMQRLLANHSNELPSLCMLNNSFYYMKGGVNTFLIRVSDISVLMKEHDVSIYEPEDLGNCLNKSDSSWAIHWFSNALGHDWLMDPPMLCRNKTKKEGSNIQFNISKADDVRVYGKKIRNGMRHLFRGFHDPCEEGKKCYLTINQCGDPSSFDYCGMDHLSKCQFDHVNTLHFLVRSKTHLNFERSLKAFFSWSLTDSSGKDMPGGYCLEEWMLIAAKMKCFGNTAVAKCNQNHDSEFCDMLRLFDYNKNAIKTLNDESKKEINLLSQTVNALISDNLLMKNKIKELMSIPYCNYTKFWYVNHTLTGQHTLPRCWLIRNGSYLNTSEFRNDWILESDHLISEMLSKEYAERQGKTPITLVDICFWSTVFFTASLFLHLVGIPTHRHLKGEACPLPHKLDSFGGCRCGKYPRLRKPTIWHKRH

[3] = target: T2, native spike complex (glycoprotein …); remark: listed apart in the source

B1: Arenacept (sAD fused at its C'-terminus to an Fc portion of IgG1) (Fc fusion)
chain: GSKIQVKCSAPNSVTITNASGGLYLVEYPEGYVAYSKATEVTGKLVHANFGTKKDFEDLDYAVNGSIVIVRAGKITIAEKVANAQSFNAIGVLIYKDRTKYPISRADEPLQGHSGLPSIPVQTISREAAEKLFQNMERDCPRSWNTDSSCKLELLQNRNVKLTVNNCLKEGTENLYFQGS[here human IgG1 Fc without letters]
IC50 values (µg/ml), neutralization of pseudotyped virus [1]: 1.8 µg/mL
IC50 values (µg/ml), neutralization of pseudotyped virus [2]: 0.5 µg/mL
pseudovirus neutralisation, IC50 (read off the curve) [3]: ~4 nM
